# The list shows a part of the results. Sequences were assembled here from the parent chain. Values near 0.05 are background.
# B1: TEV protease; numbered along this chain (parent)
# chain: MGESLFKGPRDYNPISSSICHLTNESDGHTTSLYGIGFGPFIITNKHLFRRNNGTLVVQSLHGVFKVKDTTTLQQHLVDGRDMIIIRMPKDFPPFPQKLKFREPQREERICLVTTNFQTKSMSSMVSDTSCTFPSGDGIFWKHWIQTKDGQCGSPLVSTRDGFIVGIHSASNFTNTNNYFTSVPKNFMELLTNQEAQQWVSGWRLNADSVLWGGHKVFMVKPEEPFQPVKEATQL
# Variants of: B1
# Assay: raw area under fraction-flipped curve 0-4 h after induction (AUC4h, not background-subtracted), DNA-recorder readout of cleavage of the substrate (dimensionless); higher = more cleavage of the substrate by the protease variant
# Details: temperature: 34 °C; time window: 0-4 h after rhamnose induction
# Procedure: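 In vivo DNA recorder in E. coli TOP10(DE3) ΔrhaA at 34 °C. Each TEVp single-site mutant (parent TEVp 0) is paired with a single-site variant of the 7-mer TEVs (canonical ENLYFQ|S). The substrate sits between flexible linkers in a Bxb1-sfGFP-TEVs-SsrA fusion, so cleavage stabilises Bxb1 and speeds flipping of a recombination array, read by NGS. The value is the raw area under the fraction-flipped curve over 0-4 h after rhamnose induction (AUC4h), with ≥20 reads per time point. It is not background-subtracted; inactive controls average about 0.047.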
# 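Also: Bxb1 expression induced with 0.2% (w/v) L-rhamnose at OD600 near 0.5, cultures sampled hourly, flipped fraction per protease–substrate barcode pair counted by paired-end Illumina sequencing.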
Variant,area with substrate ENLYFAS,area with substrate ENLYFCS,area with substrate ENLYFES,area with substrate ENLYFFS,area with substrate ENLYFGS,area with substrate ENLYFIS,area with substrate ENLYFKS,area with substrate ENLYFLS,area with substrate ENLYFMS,area with substrate ENLYFPS,area with substrate ENLYFRS,area with substrate ENLYFSS,area with substrate ENLYFTS,area with substrate ENLYFVS,area with substrate ENLYFWS,area with substrate ENLYFYS,area with substrate ENLYFHS,area with substrate ENLYFNS,area with substrate ENLYFDS
R204C,0.0497,0.0662,0.0732,0.068,0.0577,0.0532,0.144,0.06,0.0524,0.0541,0.0548,0.0664,0.0659,0.0644,0.0594,0.0506,,,
N206S,0.0609,0.0491,0.0531,0.0685,,0.0532,,,0.0576,0.0591,0.0692,,0.0612,0.0576,,,0.0534,0.054,
S209F,0.0576,0.068,0.0566,,0.0424,0.0517,0.0635,,0.065,0.0644,,,0.0508,0.0516,0.0565,0.0638,0.0694,0.0731,0.062
V210C,0.0568,0.0482,0.0587,0.0725,0.0772,0.0493,0.0577,0.0284,0.0575,0.0591,0.0588,0.0589,0.0519,,0.048,0.0597,,0.0684,0.0499
V210L,0.0722,0.0412,,0.0645,,0.067,0.0634,,0.0541,0.0604,,0.0528,0.0641,,0.112,0.0609,0.0611,0.05,0.0695
V210Q,0.0535,,0.0544,0.0659,,0.0578,0.0722,,0.065,0.0476,0.0824,0.0605,0.0414,0.0462,0.0569,,0.062,0.0643,0.0581
G213L,0.0643,0.0208,,0.0652,,0.0534,,,0.0593,0.057,,0.058,,0.0648,0.0459,0.0511,0.0755,0.0509,
G214Y,0.0511,,,,,0.0623,,,0.0563,0.0537,0.0545,,,,,,,0.0441,
M219G,0.0599,0.0315,0.0558,0.0648,0.0592,0.0573,0.0655,,0.0582,0.0705,0.056,,0.0566,,0.0578,,0.0509,0.0588,0.0567
M219I,0.0615,,0.0836,0.0582,,0.0454,0.0662,0.0525,0.0627,0.0514,0.0681,0.0521,0.0593,,0.0574,,,0.0628,
V220C,0.0335,0.0837,0.0754,0.0538,,0.0658,0.0588,0.057,0.0771,0.0379,0.0607,0.0578,0.0569,0.0523,0.0564,,,,0.0568
V220D,0.0441,,0.0494,0.0599,,0.05,,,0.0715,0.0704,,0.0564,0.057,0.0502,0.06,,0.0599,0.0734,
V220N,0.0512,0.0531,,0.0676,0.0865,0.047,,0.0537,0.069,0.0495,0.0565,,,,,0.0603,,,
